Measured values reported in PubChem BioAssay AID686978 (National Center for Advancing Translational Sciences (NCATS), 2013).
Hit rate of the full screen: of about 420,000 compounds, about 64,000 (15%) were called active. This list was built around the results that the source calls inconclusive (neither active nor inactive); the mix of calls is not that of the screen. Calls come from the whole dose curve; as a rule, active = well fitted inhibition curve with a large enough effect; inconclusive = small, poorly fitted or top-dose-only effect; inactive = flat fitted curve, though single readings scatter. Potencies of inconclusive entries are left out as doubtful fits.

Assay: qHTS for Inhibitors of human tyrosyl-DNA phosphodiesterase 1 (TDP1): qHTS in cells in absence of CPT; note: nearly all actives have a fitted effect of over 55% in size
Settings: DT40 Tdp1-/- hTDP1 cells, no CPT, ATP luminescence, 48 h; activity change, negative = growth inhibition: at 46.2 µM (top of the series) unless noted
Procedure, shortened: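 Growth kinetics read by CellTiter-Glo luminescence after ≥48 hr at 37 °C. Cells: DT40 Tdp1-/- stably carrying human TDP1, 400 per well, compound exposure in the absence of CPT (DMSO vehicle).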
% is set by controls: 0 for no effect and ±100 for the full control effect; potency is the fitted concentration of half-maximal effect; tags give direction and shape of the fitted curve.

SMILES | Potency | activity change, negative = growth inhibition
CCCn1cc(SCC(=O)Nc2ccc3c(c2)OCO3)c2ccccc21 | inconclusive [inhibitor, single point] | 
S=C(NCCc1ccccc1)Nc1ccc(Br)cn1 | active: 14.6 µM | 
COc1ccc(NC(=O)CCN=C2NS(=O)(=O)c3ccccc32)cc1S(=O)(=O)N(C)C |  | inconclusive: 5.79% [inhibitor]
Cc1cc(Br)ccc1-n1[nH]c(C)c(C=Nc2cccc3nsnc23)c1=O | inconclusive [inhibitor, single point] | 
Cc1ccccc1-n1nnnc1SCCCC(=O)c1ccc(F)cc1 | inconclusive [inhibitor, partial curve] | 
COC(=O)[C@]12CCCCC=C1N(Cc1ccc(Cl)cc1Cl)C(=O)[C@H](CC(=O)N1CCC(c3ccccc3)CC1)C2 | inconclusive [inhibitor, single point] | 
CC(C)OP(C)(=O)CN1CCN(CP(C)(=O)OC(C)C)CC1 (stereo not drawn) |  | inactive: 9.24%
CCc1ccc2c(c1)c(=O)c(C(=O)c1ccccc1)cn2CC(=O)Nc1ccc(C)c(Cl)c1 | active: 11.6 µM | 
O=C(NCc1ccccc1)c1cc(-c2ccncc2)nc2ccc(S(=O)(=O)N3CCOCC3)cc12 | inconclusive [inhibitor, single point] | 
COCCCNC(=S)N1CCN(S(C)(=O)=O)CC1 |  | inactive: 9.88%
COc1cccc(NC(=O)CSc2nc3ccccc3c3nc4ccccc4n23)c1 | active: 16.4 µM | 
Cc1ccc2[nH]c(=O)c(CN(CCCN(C)C)C(=S)NCCc3ccccc3)cc2c1 | inconclusive [inhibitor, single point] | 
CCCOc1c(Br)cc(C(N)=O)cc1OCC | inconclusive [inhibitor, single point] | 
O=c1[nH]c(O)c(N=Nc2ccc(Cl)c(S(=O)(=O)Nc3ccccc3Cl)c2)c(=O)[nH]1 |  | inactive: 2.02%
Cc1ccc(NC(=O)CSc2nn3c(=O)c(C)nnc3s2)cc1Cl |  | inactive: -11.4%
COc1ccc(-c2nnc(SCC(=O)NCCc3ccccc3)nc2-c2ccc(OC)cc2)cc1 | inconclusive [inhibitor, single point] | 
COc1ccc(Sc2ccccc2CN(C)C)cc1OC | inconclusive [inhibitor, single point] | 
CS(=O)(=O)c1cccc(S(=O)(=O)N2CCCCCC2)c1 |  | inactive: 9.96%
Cc1cccc(CCN2C(Nc3ccccc3)=NC[C@@H]2C)c1 | inconclusive [inhibitor, single point] | 
Cc1ccc(Cn2cccc2/C=C2/C(=N)N3C=CSC3=NC2=O)cc1 | inconclusive [inhibitor, single point] | 
CCCCOc1ccc(C(C)NC(=O)CCS(=O)(=O)Cc2ccc(Cl)cc2)cc1 (stereo not drawn) |  | inconclusive: -34% [inhibitor]
Cc1cccc(-n2nc(C(=O)Nc3ccccc3)n3c(=O)cc(-c4ccccc4)nc23)c1 | active: 16.4 µM | 

SMILES | Potency | activity change, negative = growth inhibition
Cn1c(CN2CCN(S(C)(=O)=O)CC2)nc2cc([N+](=O)[O-])ccc21 |  | inactive: -24.3%
O=C1CC2(CCN(S(=O)(=O)c3ccccc3)CC2)Oc2ccccc21 |  | inactive: -6.99%
CCOC(=O)c1c(C)n(-c2ccc(C)cc2)c2ccc(OCC(O)CN3CCN(C)CC3)cc12 (stereo not drawn) | inconclusive [inhibitor, single point] | 
COc1ccc(Cl)cc1NC(=O)CN(C)CC(=O)NCc1ccc(F)cc1 | inconclusive [inhibitor, single point] | 
Cn1c(CCN2CCN(c3ccccn3)CC2)nc2cc(NS(=O)(=O)c3ccc(Cl)cc3)ccc21 | inconclusive [inhibitor, single point] | 
Cc1ccc(NC(=O)CSc2nc3nccnc3c(=O)n2CCc2c[nH]c3ccccc23)c(C)c1 | active: 11.6 µM | 
Cn1nc(C(F)(F)F)c(-c2cccc(C(F)(F)F)c2)c1NC(=O)c1nccnc1C(=O)O | inconclusive [inhibitor, full curve, poor fit] | 
COc1ccc(-c2c(C)nn3c(-c4ccccc4)cc(-c4ccccc4)nc23)cc1 | inconclusive [inhibitor, single point] | 
CCS(=O)(=O)Nc1cccc(-c2nc3cccnc3s2)c1C | inconclusive [inhibitor, single point] | 
CN(CC(=O)Nc1cccc(F)c1)C(=O)c1cc(=O)[nH]c2ccccc12 |  | inactive: 15.4%
Cc1cc(C)cc(NC(=O)CCc2nc3sc4c(c3c(=O)[nH]2)CCCC4)c1 | active: 10.3 µM | 
O=C(Nc1ccc(OC(F)(F)F)cc1)C(NS(=O)(=O)c1cccc2nsnc12)c1ccccc1 (stereo not drawn) | inconclusive [inhibitor, single point] | 
CN(C)c1ccc(/C=c2\[nH]c(=O)/c(=C\c3ccc(N(C)C)cc3)[nH]c2=O)cc1 | inconclusive [inhibitor, partial curve] | 
C/C(=N\NC(=O)c1nnn(-c2nonc2N)c1CN(C)c1ccccc1)c1ccccc1O | active: 6.51 µM | 
O=C(COC(=O)/C=C/c1cccs1)Nc1ccc(F)cc1 | inconclusive [inhibitor, single point] | 
CSC(C1CCCC1)n1nnc2ccccc21 (stereo not drawn) |  | inactive: -22.4%
CCOc1ccc(/C=N/NC(=O)c2ccc(O)cc2)cc1CN1CC2CC(C1)c1cccc(=O)n1C2 (stereo not drawn) | inconclusive [inhibitor, partial curve] | 
CCN(c1ccccc1)S(=O)(=O)c1ccc(N2CCN(c3ccc(OC)cc3)CC2)nc1 | inconclusive [inhibitor, full curve] | 
CCCCOC(=O)c1ccc(NC(=O)c2cc(=O)c3ccccc3o2)cc1 | inconclusive [inhibitor, single point] | 
CCc1nc(N[C@H](C(=O)O)C(C)C)c2oc3ccccc3c2n1 |  | inconclusive: -31.8% [inhibitor]
Cc1cccc(N(C(=O)Cn2nnc(-c3ccccc3F)n2)C(C(=O)NC(C)(C)C)c2ccncc2)c1 (stereo not drawn) | inconclusive [inhibitor, single point] | 
